Test results reported in PubChem BioAssay AID624296 (National Center for Advancing Translational Sciences (NCATS), 2012).
Out of some 350,000 compounds screened, about 9,900 (2.8%) were called active. The shares of active, inactive and inconclusive entries below differ from those in the screen. Calls follow the shape of the dose curve; as a rule, active = well fitted activation curve with a large enough effect; inconclusive = small, poorly fitted or top-dose-only effect; inactive = no such curve, though single readings can be large or run the other way. No potency is given beside an inconclusive call; the fits are too rough.

test: A quantitative high throughput screen for small molecules that induce DNA re-replication in MCF 10a normal breast cells.; also: nearly all actives have a fitted effect of over 50% in size; as to activity, positive = re-replication: % of control where 0% means no effect; conditions: MCF 10A DNA re-replication, Hoechst nuclear intensity, 48 h; activity, positive = re-replication: at 46.1 µM (top of the series)
Potency is read from the fitted curve at half-maximal effect; tags tell the direction and shape of the fitted curve.

Question: Which “activity, positive = re-replication” value does the source give for `Cc1ccc(C(=O)NCCNC(=O)c2ccc(F)cc2)cn1` here?
Answer: inactive: 11.5%

Question: With `CCOC(=O)c1cc2n(n1)C(C(F)(F)F)CC(C)N2` (stereo not given) as the compound, how does the Potency read?
Answer: inconclusive [activator, partial curve, poor fit]

Question: Which “activity, positive = re-replication” value does the source give for `COc1ccccc1-c1ccc(SCc2ccccc2F)nn1` here?
Answer: inactive: 3.94%

Question: With `Cc1ccc(C)c(OCCC(=O)Nc2cccc(S(=O)(=O)NC3=NCCCCC3)c2)c1` as the compound, how does the Potency read?
Answer: inconclusive [activator, single point]

Question: For `Cc1ccc(-n2nc3c(=O)n(CCCC(=O)NCc4cccc(Cl)c4)nc(C)c3c2C)cc1`, which Potency is on record?
Answer: inconclusive [activator, partial curve]

Question: Which Potency does the source give for `CN1CCN(NC(=O)c2ccc(S(=O)(=O)N3CC4(C)CC3CC(C)(C)C4)cc2)CC1` (stereo not given) here?
Answer: inconclusive [activator, single point]

Question: For `COc1cc(/C=N/NC(=O)c2ccncc2)ccc1OCC(=O)Nc1ccccc1`, which Potency is on record?
Answer: inconclusive [activator, single point]

Question: Which Potency does the source give for `CN(CCc1ccccc1)C(=O)c1ccc(NC(=O)Cc2cccc(NC(=O)C3CCN(S(=O)(=O)c4cccc([N+](=O)[O-])c4)CC3)c2)cc1` here?
Answer: inconclusive [activator, partial curve, poor fit]

Question: With `COc1ccc(O)c(C(=O)c2cnc3c(c2)CN(C)C(=O)N3)c1` as the compound, how does the Potency read?
Answer: inconclusive [activator, single point]

Question: For `O=C(O)c1ccccc1-c1c2cc(I)c(=O)c(I)c-2oc2c(I)c(O)c(I)cc12`, which “activity, positive = re-replication” value is on record?
Answer: inactive: -36.5%

Question: Which “activity, positive = re-replication” value does the source give for `CC(C)Sc1nc2c(cnn2-c2ccc(Cl)cc2)c(=O)[nH]1` here?
Answer: inactive: -1.16%

Question: Which Potency does the source give for `COc1ccc(-c2cnc(N)nc2-c2ccc(OCc3ccccc3)cc2O)cc1` here?
Answer: inconclusive [activator, single point]

Question: With `Cc1cc(F)ccc1NCC(=O)Nc1ccc(Br)cc1C` as the compound, how does the Potency read?
Answer: inconclusive [activator, partial curve, poor fit]

Question: Which Potency does the source give for `CCc1ccc(CCOc2ccc(CC3SC(=O)NC3=O)cc2)nc1` (stereo not given) here?
Answer: inconclusive [activator, partial curve, poor fit]

Question: With `Cc1cc(NC(=O)c2ccc(N3CCCC3)c([N+](=O)[O-])c2)no1` as the compound, how does the Potency read?
Answer: inconclusive [activator, full curve]

Question: For `CN(C)c1nc(SCCOC(=O)c2ccccc2)nc(N(C)C)n1`, which “activity, positive = re-replication” value is on record?
Answer: inactive: 4.98%

Question: With `COc1cc(NC(=O)c2ccccc2F)c(OC)cc1NC(=O)CN1CCCCC1` as the compound, how does the Potency read?
Answer: inconclusive [activator, partial curve, poor fit]

Question: With `Cc1ccc2occ(/C=N/O)c(=O)c2c1` as the compound, how does the Potency read?
Answer: inconclusive [activator, partial curve, poor fit]

Question: With `O=[N+]([O-])c1ccc(N/N=C2\CC3CC=CC23)c([N+](=O)[O-])c1` (stereo not given) as the compound, how does the Potency read?
Answer: inconclusive [activator, single point]

Question: Which Potency does the source give for `CCCN(CC(=O)Nc1ccccc1OC)C(=O)c1ccc2[nH]c3c(c2c1)CC(C)CC3` (stereo not given) here?
Answer: inconclusive [activator, partial curve, poor fit]

Question: For `O=C(NCc1cccnc1)c1ccc(-c2ccccc2[N+](=O)[O-])o1`, which Potency is on record?
Answer: inconclusive [activator, single point]

Question: For `CC(C)(C)S(=O)(=O)c1cnc2c(-c3ccsc3)cnn2c1N`, which Potency is on record?
Answer: inconclusive [activator, single point]

Question: With `Nc1nc(N)nc(-c2cc(F)ccc2O)n1` as the compound, how does the Potency read?
Answer: inconclusive [activator, partial curve, poor fit]

Question: With `O=C(CCCc1ccccc1)Nc1cccc2c1CCCC2` as the compound, how does the “activity, positive = re-replication” value read?
Answer: inactive: -2.18%

Question: For `Cc1c(C(C)C)c(=O)n(-c2ccccc2)n1C`, which “activity, positive = re-replication” value is on record?
Answer: inactive: 8.6%

Question: Which “activity, positive = re-replication” value does the source give for `CN(C)C(=O)[C@H]1C[C@H]1[C@@H](O)[C@H](CO)NC(=O)[C@H](COCc1ccccc1)NC(=O)OC(C)(C)C` here?
Answer: inactive: 1.57%

Question: With `CCn1c(C)c(C)c2cc(C(=O)NCCN3CCCCCC3)ccc21` as the compound, how does the Potency read?
Answer: inconclusive [activator, partial curve, poor fit]

Question: Which Potency does the source give for `N#CC1(Cc2ccccc2)c2ccccc2C=CN1C(=O)c1ccccc1` (stereo not given) here?
Answer: inconclusive [activator, single point]

Question: Which Potency does the source give for `COc1ccc(C)cc1-n1nnnc1SCC(=O)NC(=O)NCc1ccco1` here?
Answer: inconclusive [activator, partial curve, poor fit]

Question: Which Potency does the source give for `CN(C)c1ncc(C2=C(Cl)C(=O)C(N3CCCC3)=C(Cl)C2=O)s1` here?
Answer: inconclusive [activator, full curve]

Question: With `COc1ccc(OC)c(NC(=O)C2CCN(S(=O)(=O)c3ccc4c(c3)CC(C)N4C(C)=O)CC2)c1` (stereo not given) as the compound, how does the Potency read?
Answer: inconclusive [activator, single point]

Question: Which “activity, positive = re-replication” value does the source give for `CC1(C)CC(=O)C2=C(C1)OC1=C(C(=O)CC(C)(C)C1)C2c1ccc(O)c([N+](=O)[O-])c1` here?
Answer: inactive: -6.45%

Question: With `Cc1cccc(-c2cccc(NC(=O)C3CCCN(C(=O)c4csc(C)n4)C3)c2)c1` (stereo not given) as the compound, how does the Potency read?
Answer: inconclusive [activator, single point]

Question: Which Potency does the source give for `CC(C)(C)OC(=O)N1CCC[C@H]1C(=O)OCC(=O)Nc1cc(S(C)(=O)=O)ccc1Cl` here?
Answer: inconclusive [activator, single point]

Question: Which Potency does the source give for `COCCn1c(C(F)(F)F)ccc(NC(=O)c2ccccc2)c1=O` here?
Answer: inconclusive [activator, single point]

Question: Which Potency does the source give for `O=C(c1ccco1)N1N=C(c2cccs2)CC1c1ccccc1O` (stereo not given) here?
Answer: inconclusive [activator, single point]

Question: Which “activity, positive = re-replication” value does the source give for `O=C(CSc1nnc(Cn2nnc3ccccc32)o1)Nc1ccc(Cl)cc1` here?
Answer: inactive: -2.44%

Question: Which Potency does the source give for `CCCCCCCC1(C)NC(=O)N(c2ccccc2)N1` (stereo not given) here?
Answer: inconclusive [activator, partial curve]

Question: With `O=S(=O)(Nc1ccccc1O)c1cccc2cccnc12` as the compound, how does the Potency read?
Answer: inconclusive [activator, single point]

Question: For `COC(=O)c1nc2nc(C)cc(C(F)(F)F)n2n1`, which “activity, positive = re-replication” value is on record?
Answer: inactive: 11.1%

Question: With `COc1cc(OC)c2ccc(=O)oc2c1C(CCN1CCN(c2ccccc2)CC1)c1ccc2c(c1)OCO2` (stereo not given) as the compound, how does the Potency read?
Answer: inconclusive [activator, partial curve]

Question: With `COc1ccc(C(=O)N(C)CCCC2CCCC2)cc1OC1CCN(C(C)C)CC1` as the compound, how does the Potency read?
Answer: inconclusive [activator, partial curve, poor fit]

Question: For `COc1ccc(OCC(=O)Nc2c(C(=O)N(CCN(C)C)Cc3ccco3)oc3ccccc23)cc1`, which Potency is on record?
Answer: inconclusive [activator, partial curve, poor fit]

Question: With `COCCCn1c(SCC(=O)Nc2ccc(C)cc2)nc2ccccc2c1=O` as the compound, how does the Potency read?
Answer: inconclusive [activator, single point]

Question: For `CC1c2ccccc2N(NC(=O)Cc2ccccc2)C1C` (stereo not given), which “activity, positive = re-replication” value is on record?
Answer: inactive: -5.56%

Question: For `COc1ccc(NS(=O)(=O)c2cccc(NC(=O)CCC(=O)c3ccc(Cl)cc3)c2)cc1`, which Potency is on record?
Answer: inconclusive [activator, single point]

Question: With `Cc1c(N2C(=O)CSC2=S)c(=O)n(-c2ccccc2)n1C` as the compound, how does the Potency read?
Answer: inconclusive [activator, partial curve, poor fit]

Question: Which “activity, positive = re-replication” value does the source give for `CC1CC(C)CN(C(=O)C(C)N2CCN(S(=O)(=O)c3ccccc3F)CC2)C1` (stereo not given) here?
Answer: inactive: 11.3%

Question: With `CCOC(=O)CSc1nc2ccccc2c(=O)n1C` as the compound, how does the Potency read?
Answer: inconclusive [activator, single point]

Question: For `Cc1cc2nc(-c3ccc(SCC(=O)Nc4ccc(S(=O)(=O)N5CCCC5)cc4)nc3)[nH]c2cc1C`, which Potency is on record?
Answer: active: 20.6 µM

Question: For `CN(CC(=O)Nc1ccc(Cl)cc1)C(=O)C1CCCC1`, which “activity, positive = re-replication” value is on record?
Answer: inactive: -18%

Question: For `Cc1ccc(NC(=O)CN(C)CC(=O)Nc2sc3c(c2C(N)=O)CCC3)cc1`, which “activity, positive = re-replication” value is on record?
Answer: inactive: 6.09%

Question: With `O=C(CCC1CCCN(C(=O)c2ccsc2)C1)N1CCN(c2ccccn2)CC1` (stereo not given) as the compound, how does the “activity, positive = re-replication” value read?
Answer: inactive: 1.06%

Question: For `O=C(O)c1ccc(S(=O)(=O)N2CCCc3ccccc32)cc1`, which “activity, positive = re-replication” value is on record?
Answer: inactive: -1.15%

Question: With `COc1ccc(Nc2ncnc3nc[nH]c23)cc1OC` as the compound, how does the Potency read?
Answer: inconclusive [activator, partial curve, poor fit]

Question: With `CCN(CC)c1ccc(S(=O)(=O)N2CCCCC2)cc1NC(=O)C1=COCCO1` as the compound, how does the Potency read?
Answer: inconclusive [activator, single point]

Question: Which Potency does the source give for `COc1ccccc1C(=O)COC(=O)/C=C/c1ccccc1` here?
Answer: inconclusive [activator, partial curve, poor fit]

Question: Which Potency does the source give for `O=C(NC(=S)Nc1cc(C(F)(F)F)ccc1N1CCOCC1)c1sc2ccccc2c1Cl` here?
Answer: inconclusive [activator, partial curve]

Question: Which Potency does the source give for `Cc1cc(Nc2ccccc2)c2c([N+](=O)[O-])cc(C)c(C)c2n1` here?
Answer: inconclusive [activator, single point]

Question: Which Potency does the source give for `Cc1c(NC(=O)COc2ccc(C(C)C)cc2)c(=O)n(-c2ccccc2)n1C` here?
Answer: inconclusive [activator, partial curve, poor fit]

Question: For `Cc1ccc(N/C=C/C(=O)c2sc(-c3ccccc3)nc2C)cc1`, which Potency is on record?
Answer: active: 9.2 µM

Question: For `CCC1(c2ccccc2)NC(=O)N(CC(=O)Nc2cc(S(=O)(=O)N3CCCCCC3)ccc2OC)C1=O` (stereo not given), which Potency is on record?
Answer: inconclusive [activator, partial curve, poor fit]

Question: With `CCOc1ccccc1NC(=S)Nc1ccccc1F` as the compound, how does the Potency read?
Answer: inconclusive [activator, partial curve, poor fit]

Question: Which Potency does the source give for `COc1ccc(Cl)cc1NC(=O)CN(C)C(=O)c1cn(-c2ccccc2)nc1-c1cccnc1` here?
Answer: inconclusive [activator, single point]

Question: Which Potency does the source give for `O=C1NC[C@@H](Cc2cccc3ccccc23)N(CCc2cc(C(F)(F)F)cc(C(F)(F)F)c2)C1=O` here?
Answer: inconclusive [activator, single point]
